Results as given in the supplement of paper PMC12645437, “Orthogonal IMiD-Degron Pairs Induce Selective Protein Degradation in Cells” (ACS Chemical Biology, 2025).
This is one part of the list.

These sequences were tested against no compound (DMSO) (assay: log2 fold change of degron read counts, EGFP-low vs EGFP+ sorted cells; higher = lower degron-EGFP level without compound (poor expression or instability)). Conditions: compound: DMSO control; 18 h.
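Also: jurkat cells carrying a lentiviral library of mutant zinc finger degrons fused to EGFP plus mCherry, mCherry+ cells FACS sorted, degron abundance counted by next-generation sequencing.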

Row | Sequence | log2 fold change of degron read counts
1 | FACNQCGATFTQKGNLLRHIKL | -0.96
2 | FFCNQCGRMFTQKGNLLRHIKL | 0.296
3 | FRCNQCGHTFTQKGNLLRHIKL | -0.55
4 | LSCNQCGFQCTQKGNLLRHIKL | 0.505
5 | FACSVCGHPFTQKGNLLRHIKL | 0.453
6 | FICNQCGRCFTQKGNLLRHIKL | -0.0467
7 | FMCEQCGAHFTQKGNLLRHIKL | -1.21
8 | FWCEQCGAVFTQKGNLLRHIKL | 0.113
9 | FKCEICGRIFTQKGNLLRHIKL | -0.731
10 | FMCPVCGAHFTQKGNLLRHIKL | -0.179
11 | FHCNICGANFTQKGNLLRHIKL | -0.812
12 | LLCNQCGFHCTQKGNLLRHIKL | 0.915
13 | FKCEQCGAFFTQKGNLLRHIKL | -1.62
14 | FQCPICGHTFTQKGNLLRHIKL | -0.283
15 | FFCNQCGHWFTQKGNLLRHIKL | 1.02
16 | FTCEICGAIFTQKGNLLRHIKL | -1.3

Row | Sequence | log2 fold change of degron read counts
17 | LWCEICGFWCTQKGNLLRHIKL | 2.55
18 | FFCDQCGATFTQKGNLLRHIKL | -1.02
19 | FLCNICGAEFTQKGNLLRHIKL | -1.65
20 | FECNQCGAWFTQKGNLLRHIKL | -0.486
21 | FLCDVCGACFTQKGNLLRHIKL | -0.829
22 | FMCPVCGATFTQKGNLLRHIKL | -0.233
23 | FICDVCGAFFTQKGNLLRHIKL | -1.2
24 | FHCDVCGAPFTQKGNLLRHIKL | -0.603
25 | FSCEICGAYFTQKGNLLRHIKL | -0.204
26 | FTCDQCGAAFTQKGNLLRHIKL | -1.79
27 | FYCEVCGAGFTQKGNLLRHIKL | -1.66
28 | FWCNICGAVFTQKGNLLRHIKL | 1.07
29 | FKCEICGHKFTQKGNLLRHIKL | -1.91
30 | FSCPVCGACFTQKGNLLRHIKL | -0.358
31 | FICDICGAIFTQKGNLLRHIKL | -0.54
32 | LLCEICGFACTQKGNLLRHIKL | 0.449
